# Experimental data: PubChem BioAssay AID2202238 (Ras Initiative Chemistry Research Team, Frederick National …, 2025)
# This is one part of the list. Shown are side measurements of this screen, not its main read-out; they come without a call.
# Biological target: GTPase KRas (Homo sapiens) (UniProt P01116)
# Assay: Cysteine mutants labelled by reactive fragments (mass read-out) (AID 2202238)
# Design: protein at 5 µM with 500 µM competing thiol for 1.5 h
# Conditions: KRAS G12D cysteine mutants, disulfide tethering, MALDI-TOF labeling, stronger effect = higher value, fragment at 500 µM
# [1] = measured here: G60C mutant labeling
# [2] = measured here: G75C mutant labeling
# [3] = measured here: H94C mutant labeling
# [4] = measured here: I36C mutant labeling
# [5] = measured here: L120C mutant labeling
# [6] = measured here: M67C mutant labeling
# [7] = measured here: M72C mutant labeling
# [8] = measured here: N26C mutant labeling
# [9] = measured here: N86C mutant labeling
# [10] = measured here: P121C mutant labeling
# [11] = measured here: S122C mutant labeling
# [12] = measured here: S136C mutant labeling
# Sequence of UniProt P01116 (P01116 whole entry, looked up, the tested form may be a part): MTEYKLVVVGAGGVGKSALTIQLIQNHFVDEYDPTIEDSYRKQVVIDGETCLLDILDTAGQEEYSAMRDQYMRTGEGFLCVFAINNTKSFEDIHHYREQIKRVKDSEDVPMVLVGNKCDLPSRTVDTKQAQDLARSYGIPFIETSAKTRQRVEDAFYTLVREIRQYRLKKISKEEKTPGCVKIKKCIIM
Structure (SMILES),percent labeling [1] [%],percent labeling [2] [%],percent labeling [3] [%],percent labeling [4] [%],percent labeling [5] [%],percent labeling [6] [%],percent labeling [7] [%],percent labeling [8] [%],percent labeling [9] [%],percent labeling [10] [%],percent labeling [11] [%],percent labeling [12] [%]
Nc1ncnc2c1ncn2CCC(=O)NCCS,23.4,7.3,11.4,21.1,22.1,15.1,9,23.4,9.1,23.4,12.6,22.9
O=C(CCS)NC1Cc2cc(Br)cnc2NC1=O (centres undefined),–,11.6,25.9,41.9,30.6,31.7,29.6,–,19,30,24.9,47.3
CC(C)Oc1cc(CN(C(=O)CCS)C2CC2)ccn1,–,23.4,41.4,36.7,31.3,59.1,39.1,–,28.4,32.1,33.1,55.4
Cc1cc(=O)[nH]c2cc(C(=O)NCCS)ccc12,8,5.2,7.1,6.8,0,6.3,25.1,23.2,0,0,4,13.4
O=C(NCCS)c1cc2ccccc2cc1O,21.8,20.9,9.2,9.5,9.2,10.2,40.4,30,7.8,15.7,8.1,17.2
Cn1c(-c2ccccc2)c(C(=O)NCCS)c2ccccc21,45.9,19,50.8,11.1,16.4,19.5,41.1,33.4,16,15.6,10.7,25
O=C(NCCS)C1CC(O)CN1C(=O)Cc1ccccc1F (centres undefined),27.7,10,30,20.6,37.7,41.1,11.3,30.4,22.2,30.2,25.9,34.2
CC(C)(C)OC(=O)NC1CCC2(CC1)CN(C(=O)CCS)CCO2 (centres undefined),–,8.5,25.5,27.1,17.2,27.6,16.3,–,17,25.3,23,44.3
Cc1ccc(S(=O)(=O)C2CCN(C(=O)CCS)CC2)cc1,–,15.9,28.1,36.6,26.2,40,28.2,–,22.1,24.8,26.7,52.2
O=C(CCS)NC1CCN(CC(=O)N2CCOCC2)CC1,–,0,9.6,20.7,11.5,21.9,3.6,–,4,14.9,13.5,22.4
Cc1cc(=O)n(CCNC(=O)CCS)cn1,–,24.5,24.9,38.8,25.1,34.1,12.9,–,29.7,39.5,40.4,48.4
O=C(COc1ccc2c3c(c(=O)oc2c1)CCC3)NCCS,27.3,11.9,11.5,9.5,11.7,7.8,33.5,21.7,12.5,13.7,0,9.6
Cc1cc(C2(NC(=O)CCS)CCOCC2)on1,–,7.7,27.3,38.9,32.2,32.9,11.7,–,16,37,31,51
O=C(NCCS)c1cn2c(n1)CCCC2,31.8,24,35.9,27.8,44.7,32.7,29.2,37,26.8,28.9,32.7,47.8
O=C(Cc1c(Cl)cccc1Cl)NCCS,41.8,16.7,20.4,19.7,30.8,19.6,40.5,28,13.4,18.3,16.2,26.6
O=C(CCS)NCc1ccc2c(c1)C(=O)NC2,–,12,24.4,40.7,28.7,31,22.3,–,31.9,28,27.6,51.6
O=C(CCS)Nc1cccc(-c2ncc3n2CCCC3)c1,–,8.4,20.5,25,20.6,34.7,44.4,–,18.5,19.8,17.9,47
O=C(CCS)Nc1cccn(CCCn2ccnc2)c1=O,–,16,34.2,41.2,36.2,36.5,30.6,–,33.2,29.7,30.5,47.3
Cc1cc(NC(=O)C2CC2)sc1C(=O)NCCS,26.2,16.7,21.5,14.4,28,22.1,33,43.8,32.7,16.3,21.1,34.7
O=C(CCc1ccc(-c2ccccc2)o1)NCCS,20.4,7.2,16.5,6.6,20.7,13.9,5.1,14.6,7.5,10.6,9.2,10.5
Cc1ccc(-c2nc(CC(=O)NCCS)cs2)cc1,34.5,15.8,23.6,12.8,44.3,17.8,33.5,30.9,15.6,18.3,15.3,22.5
O=C(CCCn1ccc2cc(Cl)ccc21)NCCS,45.1,16,24.4,9.9,27.2,12.7,32.9,31.2,11.2,21.8,9.1,18
O=C(NCCS)c1cc(Cl)ccc1-n1cnnn1,31.5,13.9,26.1,22.5,35.3,24.8,24.2,36.8,26.3,31.9,25.3,35.2
CC1(C)Cc2cccc(NC(=O)CCS)c2O1,–,14.8,39.1,31.8,30.8,23.4,33.7,–,21.3,25,28.6,45.7

Structure (SMILES),percent labeling [1] [%],percent labeling [2] [%],percent labeling [3] [%],percent labeling [4] [%],percent labeling [5] [%],percent labeling [6] [%],percent labeling [7] [%],percent labeling [8] [%],percent labeling [9] [%],percent labeling [10] [%],percent labeling [11] [%],percent labeling [12] [%]
COC(=O)c1ccc(CN(C)C(=O)CCS)nc1,–,14.1,30.9,37.3,39.3,39.3,29.8,–,31.8,41.9,37.1,57.5
O=C(N[C@@H](Cc1cnc[nH]1)C(=O)NCCS)C1CCCCC1,26.3,10.3,25.5,20.3,36,25.4,15.4,28.1,22.7,27,24.2,29.5
Cc1cc(C(=O)NCCS)cc(NCC(F)(F)F)n1,37.4,19.6,26.3,20.2,29.3,23.6,37.2,46.5,25.2,19.4,21.1,36.7
CN1CCC(n2nccc2NC(=O)CCS)CC1,–,12.6,33,52.5,16.9,42.5,19.9,–,30.4,32.7,24.5,56.4
O=C(NCCS)c1ccc2scc(Br)c2c1,34,13.2,13.3,9.5,10.9,15.4,30.2,32.1,10.1,12.6,6.3,19
O=C(CCS)NC1(c2ccc(F)cc2)CCOCC1,–,12.8,40.5,42.4,40.8,38.9,29.6,–,25.3,38.1,40.8,52.5
O=C(CCS)N1CCC(N2CC(O)C2)CC1,–,19.4,28.8,39.7,35.3,36,17.5,–,22.8,28.3,34.4,47.6
Cc1c(C2CC2)nc2ccc(Br)cc2c1C(=O)NCCS,50.2,10.6,12.1,5.7,7.7,11.5,19.1,28.4,4.7,7.1,4.8,11.9
O=C(CCS)N1CCOc2c(Cl)cc(Br)cc2C1,–,14.3,20.9,12.3,13.2,12.6,40.2,–,15.7,15.4,11,27.4
CCN1CCC(N(C)C(=O)CCC(=O)NCCS)CC1,25.6,10.2,29.2,29.3,41.6,34.6,11,35,26.4,29.6,30,37.3
O=C(CCS)NCC1CCC(c2ccccc2)CC1 (centres undefined),–,12.4,18.6,17.3,15.9,20.4,31.2,–,10.5,17.8,14.4,31.8
CC(C)c1nc(Cn2cc(C(=O)NCCS)ccc2=O)cs1,41,20,32,25.6,24.4,29.8,41.8,41.1,17.2,22.2,22.2,44.7
Cc1nn(Cc2ccccc2)c2ncc(NC(=O)CCS)cc12,–,10.7,12,14.5,13.1,28.9,28.1,–,9.6,11.5,9.5,26.7
CNC(=O)Cn1ccc(NC(=O)CCS)n1,–,15.1,23.2,28.2,29.4,24.6,17.6,–,27,25,34.3,38.7
CN(C(=O)CCS)C1CCN(c2ccccc2)CC1,–,12.5,35.3,31.2,28.3,39.5,25.4,–,19.1,31.3,30,53.2
COc1cccc(C2C(c3ccccc3)CCN2C(=O)CCS)c1 (centres undefined),–,19.7,24.9,17.2,16.3,23,24.3,–,19.4,17.9,9.6,56.8
O=C(NCCS)c1ccnn1CCC(F)(F)F,34.1,28.2,41.9,25.7,34.7,28.9,40.1,37.5,28.8,29.3,30.6,46.1
O=C(NCCS)C1(c2ccc(Cl)cc2)CCCC1,50.4,17,21.5,13.5,44.7,15.5,30,24.4,12.7,16.9,8.2,22
CN(C(=O)C1CCCN(C(=O)CCS)C1)c1ccccn1 (centres undefined),–,10.4,33.1,32.2,22.8,35.8,13,–,21.9,28.2,32.4,58.7
O=C(CCS)NCc1n[nH]c(=O)n1C1CC1,–,12,24.4,33.2,35.3,29.3,17.3,–,24.6,38.8,35.4,49.7
Cc1cnn(-c2ccc(C(=O)NCCS)cc2)c1,6.2,6.7,7.6,5,10,5.7,36.1,22.3,8.6,7.2,4.8,13.8
O=C(CCS)Nc1cccc(-n2nn[nH]c2=O)c1,–,13,25.5,21.3,28.9,19,19.6,–,28.9,28.6,34.3,38.5
O=C(CCS)NCCOc1ccc(Cl)c(Cl)c1,–,13,38.8,29.5,20.5,22.4,43.8,–,22.5,24,15.6,29.5
